Experimental data: the supplement of paper PMC12578646, “Prodrug florfenicol amine is activated by intrinsic resistance to target Mycobacterium abscessus” (Nature Microbiology, 2025)
M. abscessus ATCC 19977 and its deletion, point and complemented mutants after 5 days of drug at 37 °C plus 24 h of resazurin. Growth in % of untreated wells at the dose given (lower = more inhibition); checkerboards give % inhibition (higher = more inhibition); IC50 from the fitted curve (lower = more potent). No active / inactive call. IC50 values come from the same 384-well curves. Growth is not capped and can exceed 100%. The direction of the checkerboard scale is read from the raw signals. Capreomycin is a mixture.

Assays:
Assay in all cases: growth relative to untreated wells; higher = more growth
[1] = system: Mycobacterium abscessus ATCC 19977 ΔwhiB7 with pOLYG-aac(3)IV-eis2
Method: (§1)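 Two-fold dose series, three replicates; 5 days at 37 °C, then 24 h with resazurin; fluorescence scaled to growth and killed controls.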

[2] = system: Mycobacterium abscessus ATCC 19977 Δeis2 with pOLYG-aac(3)IV
Method: as §1

[3] = system: Mycobacterium abscessus ATCC 19977 Eis2 T258R with pOLYG-aac(3)IV
Method: as §1

[4] = system: Mycobacterium abscessus ATCC 19977 WhiB7 A51T with pOLYG-aac(3)IV
Method: as §1

[5] = system: Mycobacterium abscessus ATCC 19977 Eis2 T258R with pOLYG-aac(3)IV-eis2
Method: as §1

[6] = system: Mycobacterium abscessus ATCC 19977 WhiB7 A51T with pOLYG-aac(3)IV-eis2
Method: as §1

[7] = system: Mycobacterium abscessus ATCC 19977 Δeis2 with pOLYG-aac(3)IV-eis2
Method: as §1

[8] = system: Mycobacterium abscessus ATCC 19977 ΔwhiB7 with pOLYG-aac(3)IV
Method: as §1

CS(=O)(=O)c1ccc([C@@H](O)[C@H](N)CF)cc1 [florfenicol amine]
growth [%]
Settings	[1]	[2]	[3]	[4]	[5]	[6]	[7]	[8]
1 µg/mL	103.4	96	94.8	105.4	88.7	107	114.6	106
2 µg/mL	100	92.4	98.8	103	74.9	111	106	100.3
4 µg/mL	100	91.8	102	100	68.2	107	97	96.9
8 µg/mL	88.4	92.9	98.5	100	59.6	82.6	85.3	95
16 µg/mL	54.4	96.9	92.99	101	44.3	50.3	62.4	103
32 µg/mL	32.9	93.2	70.7	101	17.2	32.5	35	89
64 µg/mL	1.95	79.2	74.5	95.1	-0.505	-0.64	3.86	93.4
128 µg/mL	-2.04	58.2	54.7	47.1	-1.68	-2.06	-3.09	22.8
256 µg/mL	-0.471	26.4	31.8	0.776	-0.387	-1.06	-3.37	1.63
512 µg/mL	-0.0558	8.08	24.8	-1.1	1.57	1.82	-0.604	2.07
1024 µg/mL	9.56	-0.475	13.3	7.05	6.77	8.15	-1.91	4.55

NCC[C@H](O)C(=O)N[C@@H]1C[C@H](N)[C@@H](O[C@H]2O[C@H](CN)[C@@H](O)[C@H](O)[C@H]2O)[C@H](O)[C@H]1O[C@H]1O[C@H](CO)[C@@H](O)[C@H](N)[C@H]1O [amikacin]
growth [%]
Settings	[1]	[2]	[3]	[4]	[5]	[7]	[8]
0.03125 µg/mL	105	103	101.5	98.3	115	85.4	92.9
0.0625 µg/mL	106	99.1	99.3	91.2	112	85.8	88.4
0.125 µg/mL	106	106.7	108	110	110	84.5	105
0.25 µg/mL	103	81.3	40.6	65.2	110	81.9	44.9
0.5 µg/mL	97.7	-1.44	-3.79	-5.07	107	81.8	-4.49
1 µg/mL	83.2	-2.32	-4.96	-7.02	97.5	80.1	-5.71
2 µg/mL	45.7	-1.27	-4.96	-7.92	109	107	-5.85
4 µg/mL	13.8	-2.73	-4.17	-7.15	88.1	87.3	-5.34
8 µg/mL	-5.87	-2.14	-4.16	-6.5	46.7	61.6	-4.73
16 µg/mL	-4.43	-2.06	-2.86	-4.41	11.1	19.4	-3.17
32 µg/mL	-1.45	-0.959	1.52	0.0971	0.49	0.238	2.37
